The list shows a part of the results. Rule as the data show it: active = 3.2 or more and inactive = the rest. Most of these values are background signal.
B1: NTRK2_Y702_T704I_YF (peptide)
chain: MSRDVYSIDFF
B2: NTRK2_Y706_Y706C_YF (peptide)
chain: VFSTDCFRVGG
B3: NTRK3_Y744_R745P (peptide)
chain: PESIMYPKFTT
B4: NTRK1_Y676_YF (peptide)
chain: MSRDIYSTDFF
B5: NTRK1_Y791 (peptide)
chain: QAPPVYLDVLG
B6: NTRK3_Y744 (peptide)
chain: PESIMYRKFTT
B7: NUP98_Y1664_G1669V_YF (peptide)
chain: IINENYDFLKV
B8: NTRK2_Y706 (peptide)
chain: VYSTDYYRVGG
B9: NUBPL_Y109_D105Y (peptide)
chain: LYVDVYGPSVP
B10: NUP160_Y773_P768S_YF (peptide)
chain: SLLLSYFLIKW
B11: NUP93_Y391 (peptide)
chain: YKRAVYCIIGR
B12: NWD2_Y566_L569M (peptide)
chain: HEEDNYIEMIP
B13: NTRK2_Y702_R699G_YF (peptide)
chain: MSGDVYSTDFF
B14: OAS3_Y376_S381R (peptide)
chain: SLNAVYPRAGR
B15: NTRK2_Y707 (peptide)
chain: YSTDYYRVGGH
B16: NYX_Y284_L285P (peptide)
chain: ELELLYPDRNS
B17: NUP107_Y296_E298D_YF (peptide)
chain: FAKSVYWDNTL
B18: NTRK2_Y702_M697I (peptide)
chain: ISRDVYSTDYY
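Also: displayed peptides selected on beads carrying the immobilized SH2 domain, with library peptides lacking any tyrosine serving as negative controls.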

The binders below were run against SHP2 C-SH2 domain E139D (assay: enrichment score (SH2-bound / input frequency) (ratio); bacterial display of known human phosphotyrosine sites (pTyr-Var adds point mutants) read by sequencing; higher = stronger binding; tyrosines were phosphorylated by kinases first). Settings: peptide library: pTyr-Var.
B1 was tested, and the enrichment score was inactive: 0.941. For B2, the enrichment score was inactive: 1.06. In the case of B3, the enrichment score is reported as inactive: 1.04. B4 was tested, and the enrichment score was inactive: 0.904. In the case of B5, the enrichment score is reported as inactive: 0.806. For B6, the enrichment score was inactive: 0.695. In the case of B7, the enrichment score is reported as inactive: 0.927. B8 was tested, and the enrichment score was inactive: 0.77. In the case of B9, the enrichment score is reported as inactive: 1.27. In the case of B10, the enrichment score is reported as active: 3.28. For B11, the enrichment score was inactive: 0.405. In the case of B12, the enrichment score is reported as inactive: 0.802. B13 was tested, and the enrichment score was inactive: 0.984. In the case of B14, the enrichment score is reported as inactive: 0.269. With B15 the enrichment score was inactive: 0.704. In the case of B16, the enrichment score is reported as inactive: 0.837. For B17, the enrichment score was inactive: 0.681. For B18, the enrichment score was inactive: 0.644.

What follows are binders tested against SHP2 C-SH2 domain wild-type in the same assay as above. Settings: peptide library: pTyr-Var.
In the case of B1, the enrichment score is reported as inactive: 0.896. With B2 the enrichment score was inactive: 0.739. For B3, the enrichment score was inactive: 0.479. In the case of B4, the enrichment score is reported as inactive: 0.814. For B5, the enrichment score was inactive: 0.798. With B6 the enrichment score was inactive: 0.486. With B7 the enrichment score was inactive: 0.846. With B8 the enrichment score was inactive: 0.8. In the case of B9, the enrichment score is reported as inactive: 1.14. For B10, the enrichment score was active: 3.34. For B11, the enrichment score was inactive: 0.289. With B12 the enrichment score was inactive: 1.12. For B13, the enrichment score was inactive: 0.745. In the case of B14, the enrichment score is reported as inactive: 0.293. With B15 the enrichment score was inactive: 0.742. B16 was tested, and the enrichment score was inactive: 0.727. In the case of B17, the enrichment score is reported as inactive: 0.898. In the case of B18, the enrichment score is reported as inactive: 0.837.

The binders below were run against SHP2 N-SH2 domain L43F in the same assay as above. Settings: peptide library: pTyr-Var.
For B1, the enrichment score was inactive: 1.03. For B2, the enrichment score was inactive: 0.988. For B3, the enrichment score was inactive: 0.704. B4 was tested, and the enrichment score was inactive: 0.844. For B5, the enrichment score was inactive: 0.904. For B6, the enrichment score was inactive: 0.584. For B7, the enrichment score was inactive: 0.823. For B8, the enrichment score was inactive: 0.553. For B9, the enrichment score was inactive: 1.39. In the case of B10, the enrichment score is reported as active: 3.76. With B11 the enrichment score was inactive: 0.233. B12 was tested, and the enrichment score was inactive: 1.05. With B13 the enrichment score was inactive: 0.808. B14 was tested, and the enrichment score was inactive: 0.336. In the case of B15, the enrichment score is reported as inactive: 0.8. In the case of B16, the enrichment score is reported as inactive: 0.851. For B17, the enrichment score was inactive: 0.936. For B18, the enrichment score was inactive: 0.547.

The binders below were run against SHP2 N-SH2 domain T42A in the same assay as above. Settings: peptide library: pTyr-Var.
In the case of B1, the enrichment score is reported as inactive: 0.85. For B2, the enrichment score was inactive: 1.08. For B3, the enrichment score was inactive: 0.697. For B4, the enrichment score was inactive: 0.72. In the case of B5, the enrichment score is reported as inactive: 2.02. For B6, the enrichment score was inactive: 0.388. For B7, the enrichment score was inactive: 0.997. In the case of B8, the enrichment score is reported as inactive: 0.662. With B9 the enrichment score was inactive: 1.23. In the case of B10, the enrichment score is reported as inactive: 2.75. In the case of B11, the enrichment score is reported as inactive: 0.3. In the case of B12, the enrichment score is reported as inactive: 0.681. B13 was tested, and the enrichment score was inactive: 0.682. With B14 the enrichment score was inactive: 0.257. In the case of B15, the enrichment score is reported as inactive: 0.795. B16 was tested, and the enrichment score was inactive: 0.592. B17 was tested, and the enrichment score was inactive: 1.28. With B18 the enrichment score was inactive: 0.472.

What follows are binders tested against SHP2 N-SH2 domain T52S in the same assay as above. Settings: peptide library: pTyr-Var.
In the case of B1, the enrichment score is reported as inactive: 0.95. With B2 the enrichment score was inactive: 0.969. B3 was tested, and the enrichment score was inactive: 0.931. B4 was tested, and the enrichment score was inactive: 0.747. For B5, the enrichment score was inactive: 1.12. In the case of B6, the enrichment score is reported as inactive: 0.332. B7 was tested, and the enrichment score was inactive: 0.897. B8 was tested, and the enrichment score was inactive: 0.621. B9 was tested, and the enrichment score was inactive: 1.41. B10 was tested, and the enrichment score was inactive: 3.05. B11 was tested, and the enrichment score was inactive: 0.259. For B12, the enrichment score was inactive: 1.31. For B13, the enrichment score was inactive: 0.714. For B14, the enrichment score was inactive: 0.289. For B15, the enrichment score was inactive: 0.889. With B16 the enrichment score was inactive: 0.892. In the case of B17, the enrichment score is reported as inactive: 0.851. For B18, the enrichment score was inactive: 0.742.

Each binder was assayed against SHP2 N-SH2 domain wild-type in the same assay as above. Settings: peptide library: pTyr-Var.
For B1, the enrichment score was inactive: 1.03. In the case of B2, the enrichment score is reported as inactive: 0.927. For B3, the enrichment score was inactive: 0.56. B4 was tested, and the enrichment score was inactive: 0.875. With B5 the enrichment score was inactive: 0.707. In the case of B6, the enrichment score is reported as inactive: 0.657. B7 was tested, and the enrichment score was inactive: 0.956. For B8, the enrichment score was inactive: 0.67. With B9 the enrichment score was inactive: 1.12. With B10 the enrichment score was inactive: 3.11. For B11, the enrichment score was inactive: 0.31. With B12 the enrichment score was inactive: 1.65. For B13, the enrichment score was inactive: 0.649. With B14 the enrichment score was inactive: 0.286. For B15, the enrichment score was inactive: 0.971. In the case of B16, the enrichment score is reported as inactive: 0.925. B17 was tested, and the enrichment score was inactive: 0.647. B18 was tested, and the enrichment score was inactive: 0.718.
